{"source": "patent US20080161289A1", "about": "“Fused Thiazole Derivatives Having Affinity for the Histamine H3 Receptor” (Glaxo Group Limited, priority 2005, published 2008)", "biological_target": "T1, histamine H3 receptors (Homo sapiens, UniProt Q9Y5N1)", "T1 construct": "expressed in transfected cells; host or cells: CHO K1 cells carrying pSwitch, transfected with pGeneH3, induced with mifepristone; clone 3H3; membrane preparation", "T1 sequence (Q9Y5N1 whole entry)": "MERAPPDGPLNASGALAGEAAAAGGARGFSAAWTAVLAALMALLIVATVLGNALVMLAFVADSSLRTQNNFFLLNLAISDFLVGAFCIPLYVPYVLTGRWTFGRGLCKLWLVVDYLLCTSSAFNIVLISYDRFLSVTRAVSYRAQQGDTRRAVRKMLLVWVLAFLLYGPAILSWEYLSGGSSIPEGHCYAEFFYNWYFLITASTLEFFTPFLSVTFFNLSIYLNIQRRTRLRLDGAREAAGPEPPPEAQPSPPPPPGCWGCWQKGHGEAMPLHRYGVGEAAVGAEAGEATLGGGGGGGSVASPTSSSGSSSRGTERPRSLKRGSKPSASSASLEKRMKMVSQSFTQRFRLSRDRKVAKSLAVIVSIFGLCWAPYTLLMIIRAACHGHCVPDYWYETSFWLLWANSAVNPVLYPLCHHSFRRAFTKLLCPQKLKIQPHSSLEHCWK", "assay": "Histamine H3 functional antagonist assay ([35S]-GTPγS SPA on membranes from H3 cells)", "format": "biochemical", "settings": "hydrochloride salts tested; H3 functional antagonist assay using membrane prepared from cultured H3 cells; averages of a number of experiments; read-out: functional pKi (fpKi) (converted)", "text": "A membrane preparation containing histamine H3 receptors may be prepared in accordance with the following procedures:\n(i) Generation of Histamine H3 Cell Line\nDNA encoding the human histamine H3 gene (Huvar, A. et al. (1999) Mol. Pharmacol. 55(6), 1101-1107) was cloned into a holding vector, pCDNA3.1 TOPO (InVitrogen) and its cDNA was isolated from this vector by restriction digestion of plasmid DNA with the enzymes BamHI and Not-1 and ligated into the inducible expression vector pGene (InVitrogen) digested with the same enzymes. The GeneSwitch™ system (a system where in transgene expression is switched off in the absence of an inducer and switched on in the presence of an inducer) was performed as described in U.S. Pat. Nos. 5,364,791; 5,874,534; and 5,935,934. […]\n10-14 days post selection 10 nM Mifepristone (InVitrogen), was added to the culture medium to induce the expression of the receptor. […] Receptor bound antibody was detected by incubation of the cells for 60 minutes on ice with a goat anti rabbit antibody, conjugated with Alexa 488 fluorescence marker (Molecular Probes). Following two further washes with Sorting Medium, cells were filtered through a 50 μm Filcon™ (BD Biosciences) and then analysed on a FACS Vantage SE Flow Cytometer fitted with an Automatic Cell Deposition Unit. […]", "note": "The source holds more than one record for some entries. The list is limited to them. There may be further records. The records of an entry appear to be repeats on other runs, samples or individuals. Records carry a tag for their origin. The letters are not those of the source and start again with each entry."}
{"compound": "c1cc(N2CCOCC2)ccc1-c1nc2c(s1)CCN(C1CCC1)CC2", "note": "[Example E110, 6-Cyclobutyl-2-[4-(4-morpholinyl)phenyl]-5,6,7,8-tetrahydro-4H-[1,3]thiazolo[4,5-d]azepine]", "values": [{"measurement": "Ki", "result": "< 1.26 nM [passage A] and > 15.5 nM [passage B]"}]}
